These results are taken from the supplement of paper PMC10369915.

The other results are listed elsewhere or left out. No stated cut-off is given here; in the data, active = 3.2 or more and inactive = the rest. Most of these values are background signal.
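Further: displayed peptides selected on beads carrying the immobilized SH2 domain, with library peptides lacking any tyrosine serving as negative controls.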

In one assay the target is SHP2 C-SH2 domain E139D. In words: enrichment score (SH2-bound / input frequency) (ratio); bacterial display of known human phosphotyrosine sites (pTyr-Var adds point mutants) read by sequencing; higher = stronger binding; tyrosines were phosphorylated by kinases first. The settings on record: peptide library: pTyr-Var.
For the molecule AGQEDYDRLRS [RHOA_Y66_P71S], the enrichment score was inactive: 0.427.
With LEAVSYSSRYA [RNLS_Y190], the enrichment score is inactive: 0.873.
LKSEMYQKLFK [RGS13_Y146_L150F]: the enrichment score was inactive: 1.24.
Still for that read-out and setting: to KWHREYNFKYV [RICTOR_Y835_S837F] belongs inactive: 2.31; to RNFDTYTAGLS [RHBDD1_Y264_YF], inactive: 0.517; to FKEQGYHRLPP [RIN1_Y681_YF], inactive: 0.86.
Same read-out and setting: to KSAAIYNPVIF [RHO_Y301_YF] belongs inactive: 1.13.
PGRRFYVVACD [RNASE3_Y134]: the enrichment score is inactive: 0.66.
In the case of LEFAKYGSLRG [RET_Y809_V804L_YF], the enrichment score was inactive: 0.71.
Same read-out and setting: to CSEEMYCLMLQ [RET_Y981_R982C] belongs inactive: 2.23; to LEITWYPFDME [RIPOR2_Y316_V320M], inactive: 1.13; to KSAAIYNPVIY [RHO_Y301], inactive: 1.03.
On the same count and under the same terms, to DLDTDYGSGFP [RNASEH2A_Y206_YF] belongs inactive: 0.661; to VEFAKYGSLQG [RET_Y809_R813Q_YF], inactive: 0.879; to FKEQGYHRLPS [RIN1_Y681_P686S_YF], inactive: 0.965.
As for DSDTDYGSGYP [RNASEH2A_Y206_L202S], the enrichment score is inactive: 0.487.
Turning to FGVVGYLAIVF [RNF175_Y155_M159V], the enrichment score was active: 3.28.
Still for that read-out and setting: to LKSEMYQKLLK [RGS13_Y146] belongs inactive: 0.584.

Another assay deals with SHP2 C-SH2 domain wild-type. The description is as above. The settings on record: peptide library: pTyr-Var.
Take AGQEDYDRLRS [RHOA_Y66_P71S]: the enrichment score was inactive: 0.573.
Consider LEAVSYSSRYA [RNLS_Y190], for which the enrichment score was inactive: 0.685.
With LKSEMYQKLFK [RGS13_Y146_L150F], the enrichment score was inactive: 0.747.
On the same count and under the same terms, to KWHREYNFKYV [RICTOR_Y835_S837F] belongs inactive: 2.24; to RNFDTYTAGLS [RHBDD1_Y264_YF], inactive: 0.578; to FKEQGYHRLPP [RIN1_Y681_YF], inactive: 0.758.
Still for that read-out and setting: to KSAAIYNPVIF [RHO_Y301_YF] belongs inactive: 0.861; to PGRRFYVVACD [RNASE3_Y134], inactive: 0.471.
The same measure, in the same setting: to LEFAKYGSLRG [RET_Y809_V804L_YF] belongs inactive: 0.749; to CSEEMYCLMLQ [RET_Y981_R982C], inactive: 2.29.
LEITWYPFDME [RIPOR2_Y316_V320M]: the enrichment score was inactive: 1.16.
Still for that read-out and setting: to KSAAIYNPVIY [RHO_Y301] belongs inactive: 0.987.
Regarding DLDTDYGSGFP [RNASEH2A_Y206_YF], the enrichment score is inactive: 0.578.
Same read-out and setting: to VEFAKYGSLQG [RET_Y809_R813Q_YF] belongs inactive: 0.838.
For the molecule FKEQGYHRLPS [RIN1_Y681_P686S_YF], the enrichment score is inactive: 0.843.
On to DSDTDYGSGYP [RNASEH2A_Y206_L202S], for which the enrichment score is inactive: 0.454.
Turning to FGVVGYLAIVF [RNF175_Y155_M159V], the enrichment score was active: 4.83.
On the same count and under the same terms, to LKSEMYQKLLK [RGS13_Y146] belongs inactive: 0.785.

A further assay deals with SHP2 N-SH2 domain L43F. The assay is described as above. The settings on record: peptide library: pTyr-Var.
Consider AGQEDYDRLRS [RHOA_Y66_P71S], for which the enrichment score is inactive: 0.554.
As for LEAVSYSSRYA [RNLS_Y190], the enrichment score was inactive: 0.733.
Same read-out and setting: to LKSEMYQKLFK [RGS13_Y146_L150F] belongs inactive: 0.755.
On the same count and under the same terms, to KWHREYNFKYV [RICTOR_Y835_S837F] belongs inactive: 1.94.
The same measure, in the same setting: to RNFDTYTAGLS [RHBDD1_Y264_YF] belongs inactive: 0.942; to FKEQGYHRLPP [RIN1_Y681_YF], inactive: 1.08; to KSAAIYNPVIF [RHO_Y301_YF], inactive: 0.994.
In the case of PGRRFYVVACD [RNASE3_Y134], the enrichment score is inactive: 0.705.
On the same count and under the same terms, to LEFAKYGSLRG [RET_Y809_V804L_YF] belongs inactive: 0.733; to CSEEMYCLMLQ [RET_Y981_R982C], inactive: 2.08; to LEITWYPFDME [RIPOR2_Y316_V320M], inactive: 1.62.
As to KSAAIYNPVIY [RHO_Y301], the enrichment score is inactive: 0.857.
On the same count and under the same terms, to DLDTDYGSGFP [RNASEH2A_Y206_YF] belongs inactive: 0.688; to VEFAKYGSLQG [RET_Y809_R813Q_YF], inactive: 0.67.
The same measure, in the same setting: to FKEQGYHRLPS [RIN1_Y681_P686S_YF] belongs inactive: 0.309.
DSDTDYGSGYP [RNASEH2A_Y206_L202S]: the enrichment score is inactive: 0.356.
As for FGVVGYLAIVF [RNF175_Y155_M159V], the enrichment score was active: 4.09.
Still for that read-out and setting: to LKSEMYQKLLK [RGS13_Y146] belongs inactive: 0.567.

For the next assay, the target named is SHP2 N-SH2 domain T42A. The assay is described as above. The conditions noted are these: peptide library: pTyr-Var.
For AGQEDYDRLRS [RHOA_Y66_P71S], the enrichment score was inactive: 0.524.
On the same count and under the same terms, to LEAVSYSSRYA [RNLS_Y190] belongs inactive: 0.58; to LKSEMYQKLFK [RGS13_Y146_L150F], inactive: 0.788.
Regarding KWHREYNFKYV [RICTOR_Y835_S837F], the enrichment score was inactive: 1.94.
Same read-out and setting: to RNFDTYTAGLS [RHBDD1_Y264_YF] belongs inactive: 0.533; to FKEQGYHRLPP [RIN1_Y681_YF], inactive: 0.789.
On the same count and under the same terms, to KSAAIYNPVIF [RHO_Y301_YF] belongs inactive: 2.22; to PGRRFYVVACD [RNASE3_Y134], inactive: 0.747; to LEFAKYGSLRG [RET_Y809_V804L_YF], inactive: 0.567.
The same measure, in the same setting: to CSEEMYCLMLQ [RET_Y981_R982C] belongs inactive: 2.21; to LEITWYPFDME [RIPOR2_Y316_V320M], inactive: 1.52.
Regarding KSAAIYNPVIY [RHO_Y301], the enrichment score is inactive: 0.791.
The same measure, in the same setting: to DLDTDYGSGFP [RNASEH2A_Y206_YF] belongs inactive: 0.501; to VEFAKYGSLQG [RET_Y809_R813Q_YF], inactive: 0.801; to FKEQGYHRLPS [RIN1_Y681_P686S_YF], inactive: 0.807.
The same measure, in the same setting: to DSDTDYGSGYP [RNASEH2A_Y206_L202S] belongs inactive: 0.315.
On to FGVVGYLAIVF [RNF175_Y155_M159V], for which the enrichment score is active: 3.75.
As for LKSEMYQKLLK [RGS13_Y146], the enrichment score is inactive: 0.477.

The target in another assay is SHP2 N-SH2 domain T52S. The assay is described as above. The conditions noted are these: peptide library: pTyr-Var.
With AGQEDYDRLRS [RHOA_Y66_P71S], the enrichment score is inactive: 0.568.
Still for that read-out and setting: to LEAVSYSSRYA [RNLS_Y190] belongs inactive: 0.778; to LKSEMYQKLFK [RGS13_Y146_L150F], inactive: 0.633; to KWHREYNFKYV [RICTOR_Y835_S837F], inactive: 1.86.
Same read-out and setting: to RNFDTYTAGLS [RHBDD1_Y264_YF] belongs inactive: 0.675.
On to FKEQGYHRLPP [RIN1_Y681_YF], for which the enrichment score was inactive: 0.668.
Still for that read-out and setting: to KSAAIYNPVIF [RHO_Y301_YF] belongs inactive: 0.952.
PGRRFYVVACD [RNASE3_Y134]: the enrichment score is inactive: 0.498.
Same read-out and setting: to LEFAKYGSLRG [RET_Y809_V804L_YF] belongs inactive: 0.677.
Take CSEEMYCLMLQ [RET_Y981_R982C]: the enrichment score is inactive: 2.24.
The same measure, in the same setting: to LEITWYPFDME [RIPOR2_Y316_V320M] belongs inactive: 1.19; to KSAAIYNPVIY [RHO_Y301], inactive: 0.915; to DLDTDYGSGFP [RNASEH2A_Y206_YF], inactive: 0.677.
On to VEFAKYGSLQG [RET_Y809_R813Q_YF], for which the enrichment score was inactive: 0.835.
For the molecule FKEQGYHRLPS [RIN1_Y681_P686S_YF], the enrichment score is inactive: 0.664.
Still for that read-out and setting: to DSDTDYGSGYP [RNASEH2A_Y206_L202S] belongs inactive: 0.398; to FGVVGYLAIVF [RNF175_Y155_M159V], active: 3.75; to LKSEMYQKLLK [RGS13_Y146], inactive: 0.35.

The target of another assay is SHP2 N-SH2 domain wild-type. The description is as above. The conditions noted are these: peptide library: pTyr-Var.
Turning to AGQEDYDRLRS [RHOA_Y66_P71S], the enrichment score is inactive: 0.695.
As to LEAVSYSSRYA [RNLS_Y190], the enrichment score was inactive: 0.737.
Still for that read-out and setting: to LKSEMYQKLFK [RGS13_Y146_L150F] belongs inactive: 0.688; to KWHREYNFKYV [RICTOR_Y835_S837F], inactive: 1.95.
Still for that read-out and setting: to RNFDTYTAGLS [RHBDD1_Y264_YF] belongs inactive: 0.74; to FKEQGYHRLPP [RIN1_Y681_YF], inactive: 0.629.
Regarding KSAAIYNPVIF [RHO_Y301_YF], the enrichment score was inactive: 0.817.
On the same count and under the same terms, to PGRRFYVVACD [RNASE3_Y134] belongs inactive: 0.637; to LEFAKYGSLRG [RET_Y809_V804L_YF], inactive: 0.686.
For CSEEMYCLMLQ [RET_Y981_R982C], the enrichment score is inactive: 2.24.
Turning to LEITWYPFDME [RIPOR2_Y316_V320M], the enrichment score was inactive: 1.66.
For the molecule KSAAIYNPVIY [RHO_Y301], the enrichment score is inactive: 1.01.
The same measure, in the same setting: to DLDTDYGSGFP [RNASEH2A_Y206_YF] belongs inactive: 0.735.
Regarding VEFAKYGSLQG [RET_Y809_R813Q_YF], the enrichment score is inactive: 0.853.
Same read-out and setting: to FKEQGYHRLPS [RIN1_Y681_P686S_YF] belongs inactive: 1.11; to DSDTDYGSGYP [RNASEH2A_Y206_L202S], inactive: 0.381.
On the same count and under the same terms, to FGVVGYLAIVF [RNF175_Y155_M159V] belongs active: 4.86; to LKSEMYQKLLK [RGS13_Y146], inactive: 0.57.
